Source: PMC4428439, “Anti-adaptors use distinct modes of binding to inhibit the RssB-dependent turnover of RpoS (σ^S) by ClpXP” (Frontiers in Molecular Biosciences, 2015)

Target: T1, RssB, full-length, untagged, purified (E. coli, UniProt P0AEV1 1-337)
T1 construct: RssB (SprE), adaptor protein of ClpXP, E. coli; residues 1-337 by the printed domain limits; Monomeric and dimeric RssB were separated by preparative SEC; degradation assays used monomeric RssB; also called SprE; full-length RssB; source: E. coli, Ub-fusion system, purified (IMAC, preparative SEC)
T1 sequence (looked up): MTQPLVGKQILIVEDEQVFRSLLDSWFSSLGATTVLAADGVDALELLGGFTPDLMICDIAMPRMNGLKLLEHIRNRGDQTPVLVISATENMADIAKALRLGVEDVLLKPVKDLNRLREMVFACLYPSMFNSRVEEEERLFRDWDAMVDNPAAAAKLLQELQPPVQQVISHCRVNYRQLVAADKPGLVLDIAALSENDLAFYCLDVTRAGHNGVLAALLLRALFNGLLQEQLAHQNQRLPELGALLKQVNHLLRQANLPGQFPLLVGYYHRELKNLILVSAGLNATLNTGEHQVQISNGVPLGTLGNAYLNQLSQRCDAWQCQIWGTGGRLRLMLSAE
Experiment: SEC; Superdex 200; σ^S preincubated with RssB (+AcP), IraD then added to the preformed complex; fractions on SDS-PAGE, σ^S quantified with GelEval; GF buffer
Settings: both partners purified

B1: σ^S (RpoS), untagged, purified (natural protein)
chain: not shown
notes: RpoS (σ^S, σ^38), RNA polymerase sigma factor, E. coli; also called σ^38; SigmaS; source: E. coli, Ub-fusion system, purified (IMAC, SEC)
binding result: binds
